{"source": "PubChem BioAssay AID588591", "about": "(National Center for Advancing Translational Sciences (NCATS), 2011)", "note": "The whole screen tested about 390,000 compounds, of which about 4,700 (1.2%) were called active. The inconclusive results got no clear call from the source; some entries with a clear call stand among them for comparison. Calls come from the whole dose curve; as a rule, active = well fitted inhibition curve with a large enough effect; inconclusive = small, poorly fitted or top-dose-only effect, or another doubt; inactive = no such curve, though single readings can be large or run the other way. A potency beside an inconclusive call is a rough fit, not a confirmed value. % is set by controls: 0 for no effect and ±100 for the full control effect; potency is the fitted concentration of half-maximal effect; tags give direction and shape of the fitted curve.", "data": [{"target": "DNA polymerase eta (Homo sapiens) (UniProt Q9Y253)", "sequence (Q9Y253 whole entry, looked up)": "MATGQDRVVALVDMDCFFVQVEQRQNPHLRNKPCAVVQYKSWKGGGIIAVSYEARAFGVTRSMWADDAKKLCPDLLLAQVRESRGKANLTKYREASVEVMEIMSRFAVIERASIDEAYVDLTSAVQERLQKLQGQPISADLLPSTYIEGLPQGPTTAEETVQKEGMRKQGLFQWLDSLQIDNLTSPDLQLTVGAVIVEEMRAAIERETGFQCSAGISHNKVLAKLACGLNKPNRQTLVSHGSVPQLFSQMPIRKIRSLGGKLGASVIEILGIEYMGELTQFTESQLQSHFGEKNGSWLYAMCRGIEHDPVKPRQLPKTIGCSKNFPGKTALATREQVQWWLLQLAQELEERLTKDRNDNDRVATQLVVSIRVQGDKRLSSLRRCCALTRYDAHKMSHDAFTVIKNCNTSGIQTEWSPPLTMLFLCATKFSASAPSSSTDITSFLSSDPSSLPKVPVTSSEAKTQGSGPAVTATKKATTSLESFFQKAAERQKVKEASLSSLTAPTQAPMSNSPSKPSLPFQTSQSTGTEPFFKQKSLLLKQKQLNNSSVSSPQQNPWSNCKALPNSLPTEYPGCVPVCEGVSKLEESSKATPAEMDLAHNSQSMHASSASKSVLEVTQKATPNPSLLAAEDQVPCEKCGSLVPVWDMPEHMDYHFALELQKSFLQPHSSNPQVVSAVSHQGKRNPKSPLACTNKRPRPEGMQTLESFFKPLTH", "assay": "qHTS for Inhibitors of Polymerase Eta", "details": "recombinant Pol eta, fluorescent DNA replication assay; series mostly up to 114 µM; activity change, negative = inhibition: at the top concentration", "in_short": "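Pol eta (10 nM) was preincubated with compounds for 15 min at room temperature, after which fluorescent replication substrate (50 nM final) was added to start the reaction. Fluorescence was read kinetically at 0 and 10 min.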", "values": [{"smiles": "CCOC(=O)c1cnc(-n2nc(C)cc2C)nc1NCc1ccccc1", "Potency": "inconclusive: 12.6 µM [inhibitor, partial curve, poor fit]"}, {"smiles": "O=c1/c(=C\\c2cc([N+](=O)[O-])cc([N+](=O)[O-])c2O)sc2nc3ccccc3n12", "Potency": "inconclusive: 11.2 µM [inhibitor, full curve, poor fit]"}, {"smiles": "O=C(Nc1ccccc1)c1ccc2nc(-c3ccco3)c(-c3ccco3)nc2c1", "Potency": "inconclusive: 56.2 µM [inhibitor, partial curve, poor fit]"}, {"smiles": "Cc1ccc(OCc2nnc(NC(=O)c3ccco3)s2)cc1", "Potency": "inconclusive: 25.1 µM [inhibitor, partial curve, poor fit]"}, {"smiles": "CCc1ccccc1Nc1nn2c(=O)c3ccc(C(=O)NCCc4ccccc4)cc3nc2s1", "Potency": "inconclusive: 100 µM [inhibitor, partial curve, poor fit]"}, {"smiles": "O=C(Nc1nc(-c2cc3ccccc3oc2=O)cs1)c1ccc(Br)o1", "Potency": "inconclusive: 10 µM [inhibitor, full curve, poor fit]"}, {"smiles": "CC(=O)N1c2c(cc(Br)cc2S(=O)(=O)N2CCN(c3ccccn3)CC2)CC1C", "note": "(stereo unspecified)", "Potency": "inconclusive: 39.8 µM [inhibitor, single point]"}, {"smiles": "NC(=O)c1c(NC(=O)c2noc3c2CCCC3)sc2c1CCCC2", "activity change, negative = inhibition": "inactive: 15.3%"}, {"smiles": "COc1ccccc1OCC(=O)Nc1ccc2c(c1)OCO2", "Potency": "inconclusive: 56.2 µM [inhibitor, partial curve, poor fit]"}, {"smiles": "O=C(O)CCCCCN1C(=O)/C(=C\\c2cn(-c3ccccc3)nc2-c2cccs2)SC1=S", "Potency": "active: 44.7 µM"}, {"smiles": "CCOC(=O)C1=C(c2ccccc2)N=c2s/c(=C\\c3ccco3)c(=O)n2C1c1cccs1", "note": "(stereo unspecified)", "Potency": "active: 79.4 µM"}, {"smiles": "COc1cccc(N(C(=O)CCl)C(C(=O)NCCc2ccccc2)c2cccs2)c1", "note": "(stereo unspecified)", "Potency": "inconclusive: 20 µM [inhibitor, partial curve, poor fit]"}, {"smiles": "O=c1c(C(c2ccc(O)cc2)c2c(O)nc3n(c2=O)CCCS3)c(O)nc2n1CCCS2", "Potency": "active: 12.6 µM"}, {"smiles": "COc1cc2oc(-c3ccc(O)cc3)cc(=O)c2c(O)c1OC", "Potency": "inconclusive: 22.4 µM [inhibitor, partial curve, poor fit]"}, {"smiles": "COc1cc(Nc2nc(-c3ccccc3)c3cc(C)ccc3n2)cc(OC)c1OC", "Potency": "inconclusive: 17.8 µM [inhibitor, partial curve, poor fit]"}, {"smiles": "CN(Cc1cn(C)nc1-c1ccc(Oc2ccccc2)cc1)CC1COCCO1", "note": "(stereo unspecified)", "Potency": "inconclusive: 79.4 µM [inhibitor, partial curve, poor fit]"}, {"smiles": "CC1CCCCN1CC(=O)Nc1sccc1C#N", "note": "(stereo unspecified)", "Potency": "inconclusive: 20 µM [inhibitor, single point]"}, {"smiles": "CC(/C=N/NC(=O)Cc1cccn1C)=C\\c1ccco1", "Potency": "inconclusive: 14.1 µM [inhibitor, full curve, poor fit]"}, {"smiles": "CCN(CC)C(=O)c1c(-c2ccccc2)c(-c2ccccc2)nn(C)c1=O", "activity change, negative = inhibition": "inactive: -7.6%"}, {"smiles": "O=C(O)c1ccc(S(=O)(=O)c2ccccc2C(=O)O)c([N+](=O)[O-])c1", "activity change, negative = inhibition": "inactive: 7.68%"}, {"smiles": "COc1cc(C(=O)NC2=NCCS2)ccc1OCc1c(C)noc1C", "activity change, negative = inhibition": "inactive: -2.77%"}, {"smiles": "C=CCOc1c(Br)cc(/C=N/Nc2ccc(C(=O)O)cc2)cc1OCC", "Potency": "inconclusive: 31.6 µM [inhibitor, single point]"}, {"smiles": "Nc1nc(N)c2cc(S(=O)(=O)c3cccc(C(F)(F)F)c3)ccc2n1", "Potency": "inconclusive: 35.5 µM [inhibitor, partial curve, poor fit]"}, {"smiles": "O=C(Nc1ccc(F)cc1Cl)C1CCN(C(=O)Nc2ccccc2)CC1", "activity change, negative = inhibition": "inactive: -19.7%"}, {"smiles": "CCOc1ccc(Nc2ncnc3ccc([N+](=O)[O-])cc23)cc1", "Potency": "inconclusive: 50.1 µM [inhibitor, partial curve, poor fit]"}, {"smiles": "CCN(CC(=O)Nc1ccc(NC(C)=O)cc1)C(=O)c1cc2c(s1)CCCC2", "Potency": "inconclusive: 50.1 µM [inhibitor, partial curve, poor fit]"}, {"smiles": "CCOc1ccccc1N1CCN(CC(=O)NCCc2ccc(S(N)(=O)=O)cc2)CC1", "Potency": "inconclusive: 56.2 µM [inhibitor, partial curve, poor fit]"}, {"smiles": "COC(=O)c1c(N2C(=O)[C@H]3[C@@H](C2=O)[C@]2(C(=O)Nc4c(C)cccc42)N2CCC[C@@H]32)sc(C)c1C", "Potency": "inconclusive: 12.6 µM [inhibitor, partial curve, poor fit]"}, {"smiles": "CCCC1=Nc2cc(C(=O)NCc3ccc(OC)cc3)ccc2Sc2ccc(C)cc21", "activity change, negative = inhibition": "inactive: -14.7%"}, {"smiles": "O=C(CCc1nc(CN2CCN(S(=O)(=O)c3ccc(Cl)cc3)CC2)no1)N1CCCCC1", "activity change, negative = inhibition": "inactive: -14.5%"}, {"smiles": "C=C(C)C(=O)N1CC2(CC(c3cccc(NC(=O)/C=C\\C)c3)=NO2)C[C@H]1C(N)=O", "note": "(stereo partly specified)", "activity change, negative = inhibition": "inactive: 6.22%"}, {"smiles": "CCOC(=O)N/N=C(C)/C=C/c1ccccc1", "activity change, negative = inhibition": "inactive: -11.8%"}, {"smiles": "Cc1nc2cc(-c3ccsc3-n3c(C)ccc3C)[nH]n2c(=O)c1Cl", "Potency": "active: 25.1 µM"}, {"smiles": "Cc1cccc(NC(=O)CSc2ncc3c(n2)-c2ccccc2N(Cc2ccc(F)cc2)S3(=O)=O)c1C", "activity change, negative = inhibition": "inactive: -4.64%"}, {"smiles": "CSc1nc(N2CCOCC2)c2c3c(sc2n1)CCC3", "Potency": "inconclusive: 20 µM [inhibitor, partial curve, poor fit]"}, {"smiles": "Cc1ccc(N2CCN(C(=O)c3c(C)oc4ncn(CC(C)C)c(=O)c34)CC2)c(C)c1", "activity change, negative = inhibition": "inactive: -24.1%"}, {"smiles": "O=S(=O)(NCC1CCCO1)c1cc(Cl)ccc1Cl", "note": "(stereo unspecified)", "activity change, negative = inhibition": "inactive: -1.67%"}, {"smiles": "COCCCNc1oc(/C=C/c2cc(OC)c(OC)c(OC)c2)nc1C#N", "activity change, negative = inhibition": "inactive: -7.54%"}, {"smiles": "C[C@@H]1CN([C@@H](C)CO)S(=O)(=O)c2ccc(C#CC3CCCCC3)cc2O[C@@H]1CN(C)Cc1cccnc1", "activity change, negative = inhibition": "inactive: -8.82%"}, {"smiles": "COc1cc(NC(=O)Cn2c(=O)n(Cc3ccco3)c(=O)c3sc4ccccc4c32)cc(OC)c1", "activity change, negative = inhibition": "inactive: -0.104%"}, {"smiles": "Cc1ccc(SCc2ccc(C(=O)NCc3ccncc3)cc2)cc1", "Potency": "inconclusive: 100 µM [inhibitor, single point]"}, {"smiles": "COC(=O)CSc1nc2c(c(-c3ccco3)c1C#N)CCCC2", "Potency": "inconclusive: 35.5 µM [inhibitor, partial curve, poor fit]"}, {"smiles": "O=C(Nc1nc2ccc(S(=O)(=O)N3CCCC3)cc2s1)C1CCCCC1", "Potency": "inconclusive: 22.4 µM [inhibitor, partial curve]"}, {"smiles": "Cc1ccc(NC(=S)N2CCN(CCN3C(=O)c4cccc5cccc(c45)C3=O)CC2)cc1", "Potency": "inconclusive: 8.91 µM [inhibitor, partial curve]"}, {"smiles": "CC(=O)Nc1ccc(NC(=O)C(C)OC(=O)CC23CC4CC(CC(Br)(C4)C2)C3)cc1", "note": "(stereo unspecified)", "Potency": "inconclusive: 50.1 µM [inhibitor, partial curve, poor fit]"}, {"smiles": "Nc1ccc2nn(-c3cccc4ccccc34)nc2c1", "Potency": "inconclusive: 2.24 µM [inhibitor, full curve, poor fit]"}, {"smiles": "CC(=O)N(c1ccccc1)c1ccccc1[N+](=O)[O-]", "activity change, negative = inhibition": "inactive: -2.56%"}, {"smiles": "Cc1cc(C(F)(F)F)nn1CC(=O)NCc1ccco1", "Potency": "inconclusive: 28.2 µM [inhibitor, partial curve, poor fit]"}, {"smiles": "C=C(C)C(=O)OCC(O)COc1ccc(C(C)(C)c2ccc(OCC(O)COC(=O)C(=C)C)cc2)cc1", "note": "(stereo unspecified)", "Potency": "inconclusive: 0.891 µM [inhibitor, partial curve, poor fit]"}, {"smiles": "CCc1nc2oc3cc(OC)ccc3c(=O)c2c(=O)n1Cc1ccco1", "activity change, negative = inhibition": "inactive: -7.6%"}, {"smiles": "CCS(=O)(=O)N1Cc2ccccc2CC1C(=O)Nc1nc2ccc(F)cc2s1", "note": "(stereo unspecified)", "Potency": "inconclusive: 15.8 µM [inhibitor, partial curve, poor fit]"}, {"smiles": "CCOC(=O)c1ccc(Nc2nc(N3CCOCC3)nc(N3CCOCC3)n2)cc1", "Potency": "inconclusive: 79.4 µM [inhibitor, partial curve, poor fit]"}, {"smiles": "Nc1ccc2c(c1)-c1ccccc1S(=O)(=O)N2", "Potency": "active: 44.7 µM"}, {"smiles": "COc1cc(C)ccc1NC(=O)Cc1csc(NC(=O)Nc2ccccc2OC)n1", "Potency": "inconclusive: 56.2 µM [inhibitor, partial curve, poor fit]"}, {"smiles": "CCN(CC)C(=O)C1CCCN(C(=O)Nc2ccc3nsnc3c2)C1", "note": "(stereo unspecified)", "Potency": "inconclusive: 44.7 µM [inhibitor, partial curve]"}, {"smiles": "COc1ccc(NC(=O)CCn2c(=O)c3cccn3c3cccnc32)c(OC)c1", "activity change, negative = inhibition": "inactive: -10.3%"}, {"smiles": "Cn1c(=O)c2c(nc(NCc3ccco3)n2Cc2ccc(Cl)cc2Cl)n(C)c1=O", "Potency": "inconclusive: 25.1 µM [inhibitor, single point]"}, {"smiles": "CCc1ccc(NC(=O)CCn2nc(-c3ccccc3OC)c3c(C)cc(C)nc32)cc1", "activity change, negative = inhibition": "inactive: -14.7%"}, {"smiles": "COc1ccc(OC)c(NC(=O)Nc2nnc(N3CCCCC3C)s2)c1", "note": "(stereo unspecified)", "Potency": "inconclusive: 79.4 µM [inhibitor, partial curve, poor fit]"}, {"smiles": "CCC(=NCc1ccccc1)C1=C(O)C(C(=O)OC)C(C)(C)CC1=O", "note": "(stereo unspecified)", "Potency": "inconclusive: 89.1 µM [inhibitor, single point]"}, {"smiles": "Brc1ccccc1-c1nnc(COc2cccc3cccnc23)o1", "Potency": "inconclusive: 17.8 µM [inhibitor, single point]"}, {"smiles": "COc1ccc(NC(=O)C2=C(C)Nc3nc(SCc4ccccc4C)nn3C2c2cc(OC)c(O)c(OC)c2)cc1", "note": "(stereo unspecified)", "Potency": "inconclusive: 56.2 µM [inhibitor, partial curve, poor fit]"}, {"smiles": "O=C(CSC1=NCCS1)NCc1ccco1", "activity change, negative = inhibition": "inactive: -17.3%"}, {"smiles": "Cc1ccccc1Oc1ccc(-c2nc(N)nc(N)n2)cc1", "Potency": "inconclusive: 56.2 µM [inhibitor, single point]"}, {"smiles": "COc1cc(/C=C/c2cc(OC(C)=O)c3ccccc3n2)c(OC(C)=O)c([N+](=O)[O-])c1", "Potency": "inconclusive: 15.8 µM [inhibitor, full curve]"}, {"smiles": "Cc1ccc(N2C(=O)c3ccccc3C2C(=O)c2ccc(O)cc2O)cc1", "note": "(stereo unspecified)", "Potency": "active: 79.4 µM"}]}]}
